According to PubChem BioAssay AID624170 (National Center for Advancing Translational Sciences (NCATS), 2012):
Out of some 410,000 compounds screened, about 850 (0.21%) were called active. The shares of active, inactive and inconclusive entries below differ from those in the screen. Calls follow the shape of the dose curve; as a rule, active = well fitted inhibition curve with a large enough effect; inconclusive = small, poorly fitted or top-dose-only effect, or another doubt; inactive = no such curve, though single readings can be large or run the other way. Potencies of inconclusive entries are left out as doubtful fits.

Each molecule was assayed against Glutaminase kidney isoform, mitochondrial (Homo sapiens) (UniProt O94925) (assay: qHTS for Inhibitors of Glutaminase (GLS)). Conditions: GLS enzymatic activity, qHTS titration; series mostly up to 45.5 µM; activity change, negative = inhibition: at the top concentration.
Sequence of UniProt O94925 (O94925 whole entry, looked up, canonical isoform): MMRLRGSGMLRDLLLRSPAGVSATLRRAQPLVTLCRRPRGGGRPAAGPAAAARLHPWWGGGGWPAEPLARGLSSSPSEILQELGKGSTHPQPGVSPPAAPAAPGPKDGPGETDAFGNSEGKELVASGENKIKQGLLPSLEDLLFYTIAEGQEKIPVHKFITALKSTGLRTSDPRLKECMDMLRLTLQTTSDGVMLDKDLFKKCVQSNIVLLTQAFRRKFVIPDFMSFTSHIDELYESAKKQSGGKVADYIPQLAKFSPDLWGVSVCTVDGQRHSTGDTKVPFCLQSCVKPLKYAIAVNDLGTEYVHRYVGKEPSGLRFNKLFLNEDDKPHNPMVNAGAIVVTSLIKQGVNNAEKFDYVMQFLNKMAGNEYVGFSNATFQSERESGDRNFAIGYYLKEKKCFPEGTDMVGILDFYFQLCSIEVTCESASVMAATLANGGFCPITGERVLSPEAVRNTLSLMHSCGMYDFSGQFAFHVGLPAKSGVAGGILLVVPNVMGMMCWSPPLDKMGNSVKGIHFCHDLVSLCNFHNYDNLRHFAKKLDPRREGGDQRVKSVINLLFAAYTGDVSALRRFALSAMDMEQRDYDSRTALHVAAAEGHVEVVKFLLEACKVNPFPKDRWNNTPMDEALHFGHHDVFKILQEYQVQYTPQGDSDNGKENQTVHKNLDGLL
In short: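 Enzyme dispensed in phosphate buffer (45 mM, pH 8.2, 0.02% Tween-20), compounds pinned in, then 1 mM L-glutamine solution and the glutamate oxidase–HRP–Amplex Red mix added; fluorescence read immediately and again after 30 min at room temperature.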
% is scaled to controls: 0 for no effect and ±100 for the full control effect; potency is read from the fitted curve at half-maximal effect; tags tell the direction and shape of the fitted curve.

SMILES | Potency | activity change, negative = inhibition
Cc1ccccc1/C=C\c1nc2ccccc2c(=O)n1Cc1ccccc1 | inconclusive [inhibitor, single point] | 
COc1cccc2cc(C(=O)Nc3ccc(F)cc3)c(=Nc3ccc(C(=O)O)cc3)oc12 | inconclusive [inhibitor, single point] | 
Cc1ccc(OCC(=O)OCC(=O)N2c3ccccc3CC2C)cc1C (stereo unspecified) |  | inactive: 10.4%
O=C1C2=C(Nc3ccccc3SC2c2ccc(Cl)c(Cl)c2)c2ccccc21 (stereo unspecified) |  | inactive: -4.24%
CCN(CC)c1ccc(NC(=O)c2ccc3c(c2)OCO3)c(C)c1 | inconclusive [inhibitor, single point] | 
Cc1cccc(-n2cnc(C(=O)O)c2)n1 |  | inactive: 0.519%
CC(=O)c1c(C)oc(C)c1CSCc1ccc(C(=O)O)o1 | inconclusive [inhibitor, partial curve] | 
Cn1cc(S(=O)(=O)CC(=O)N2CCc3ccccc32)c2ccccc21 |  | inactive: 0.0031%
COc1cc(C2NC(=O)NC(C)=C2C(C)=O)ccc1O (stereo unspecified) | inconclusive [inhibitor, partial curve, poor fit] | 
Cc1sc2c3ccsc3ccc2[n+]1C | inconclusive [inhibitor, full curve] | 
COc1cccc(-c2ncc3ccccc3c2COC(=O)c2ccc(F)cc2)c1 |  | inactive: 3.82%
Cc1c(CBr)[n+](=O)c2c(n1[O-])C(Br)CCC2Br (stereo unspecified) | inconclusive [inhibitor, single point] | 
COc1cc(OC)c(NC(=S)Nc2cc(Cl)cc(Cl)c2)cc1Cl | inconclusive [inhibitor, partial curve, poor fit] | 
O=C(O)c1ccc(N=NN2CCCCC2)cc1 |  | inactive: 6%
Cc1cc(C)c(C(=O)/C=C/c2ccco2)c(=O)[nH]1 | inconclusive [inhibitor, partial curve] | 
Cc1cc(=O)oc2cc(OCC(=O)NC(Cc3c[nH]c4ccc(O)cc34)C(=O)O)c(Cl)cc12 (stereo unspecified) | inconclusive [inhibitor, partial curve] | 
Cc1ccc(C)c(NNC(=O)C(=O)NNc2cc(C)ccc2C)c1 | inconclusive [inhibitor, partial curve] | 
CC(c1ccccc1)n1c(N2CCN(C)CC2)nc2c1c(=O)[nH]c(=O)n2C (stereo unspecified) | inconclusive [inhibitor, partial curve, poor fit] | 
O=C(NC1CC(=O)N(c2cccc(F)c2)C1)C1CCCCC1 (stereo unspecified) |  | inactive: 5.23%
Nc1ccc(Nc2ccccc2)c(S(=O)(=O)O)c1 | inconclusive [inhibitor, single point] | 
Cc1cc(NS(=O)(=O)c2ccc(NC(=O)COc3c(C)cc(Br)cc3C)cc2)no1 | active: 7.94 µM | 
CC(=O)N1CCN(c2ccc(NCc3cccc4ccccc34)cc2)CC1 | inconclusive [inhibitor, single point] | 
CCCCn1nnnc1NCc1cccnc1 | inconclusive [inhibitor, single point] | 
COc1ccc2c(c1)C(C)CC(C)(C)N2C(=O)Nc1ccccc1 (stereo unspecified) | inconclusive [inhibitor, partial curve, poor fit] | 

SMILES | Potency | activity change, negative = inhibition
CCC(c1ccccc1)c1nnc(NC(=O)c2ccco2)s1 (stereo unspecified) |  | inactive: -0.169%
Cc1cc(O)c(C(C)C)cc1N=Cc1ccccc1[N+](=O)[O-] |  | inactive: -0.133%
O=C(NCCCNC(=O)c1cccs1)c1cccs1 | inconclusive [inhibitor, single point] | 
CCNC(=S)Nc1ccc(N2CCCCC2)cc1 | inconclusive [inhibitor, partial curve] | 
CCCC(=O)Nc1ccc(C(=O)NNC(=S)NC(=O)c2ccc(Br)o2)cc1 | inconclusive [inhibitor, single point] | 
O=C(NCc1nc2ccccc2[nH]1)c1ccc(Cl)c(S(=O)(=O)N2CCCC2)c1 |  | inactive: -12.5%
COc1cccc(C(=O)NCC(c2ccc(N(C)C)cc2)N2CCc3ccccc32)c1OC (stereo unspecified) |  | inactive: 31.2%
CO/N=C\CC(=O)Nc1ccc(Cl)cc1Cl | inconclusive [inhibitor, single point] | 
O=C(Oc1ccc(N(Cc2cccs2)C2=NS(=O)(=O)c3ccccc32)cc1)c1ccccc1Cl | inconclusive [inhibitor, single point] | 
COc1ccc(NC(=O)/C(Cl)=C(/Cl)S(=O)Cc2ccccc2Cl)cn1 (stereo unspecified) | inconclusive [inhibitor, partial curve] | 
Cc1ccccc1Nc1cc(C(=O)NCC2CCCO2)c2ccccc2n1 (stereo unspecified) | inconclusive [inhibitor, single point] | 
CC1CC(C)CN(C(=O)CCCn2c(=S)[nH]c3ccccc3c2=O)C1 (stereo unspecified) | inconclusive [inhibitor, full curve] | 
O=C1C=CC2=C3c4cc(O)c(O)cc4CC3(O)COC2=C1O (stereo unspecified) | inconclusive [inhibitor, partial curve, poor fit] | 
O=C(NCC(O)CO)c1csc(Nc2cccc3ccccc23)n1 (stereo unspecified) | inconclusive [inhibitor, partial curve] | 
O=C(Cc1ccc([N+](=O)[O-])cc1)c1c(O)cc(O)cc1O |  | inactive: 25.3%
CCOC(=O)C1=C(C)N=c2sc(=Cc3ccc(OCC(=O)O)cc3)c(=O)n2C1c1ccc(Cl)cc1 (stereo unspecified) | inconclusive [inhibitor, single point] | 
Nc1ccc(N(CCO)CCO)cc1 | inconclusive [inhibitor, single point] | 
COc1ccc(-n2sc3ccccc3c2=O)cc1 | inconclusive [inhibitor, single point] | 
CC1CN(Cc2ccccc2Cl)CC(C)O1 (stereo unspecified) |  | inactive: -4.61%
CCOC(=O)c1sc2nc(N3CCOCC3)c3c(c2c1N)CCCC3 | inconclusive [inhibitor, single point] | 
CC1(C)CC(=O)c2sc(NC(=O)c3cccs3)nc2C1 | inconclusive [inhibitor, single point] | 
COc1ccc(-c2cc(C(F)(F)F)nc(S(C)(=O)=O)n2)cc1OC | inconclusive [inhibitor, single point] | 
Cc1scc(C(=O)N/N=C/c2ccsc2)c1C |  | inactive: 5.38%
COC(=O)CCC(=O)N1CCc2cc(S(=O)(=O)N3CCc4ccccc43)ccc21 |  | inactive: 8.82%

SMILES | Potency | activity change, negative = inhibition
Nn1c(=O)[nH]c2c([nH]c3ccccc32)c1=O | inconclusive [inhibitor, full curve, poor fit] | 
CC(C)[C@H]1COCCS(=O)(=O)N1Cc1ccccc1-c1ccccc1 |  | inactive: 10.9%
Cc1ccc(NC(=O)NC(=O)COc2c(F)c(F)cc(F)c2F)c(C)c1 | inconclusive [inhibitor, single point] | 
C[C@H](CO)N1C[C@H](C)[C@@H](CN(C)C(=O)c2ccc3c(c2)OCO3)Oc2cc(/C=C/c3ccccc3)ccc2S1(=O)=O |  | inactive: -0.505%
C#CCOCCOCCOCCNc1nc(N2CCN(C(=O)Cn3cc(CCCCN)nn3)CC2)nc(N2CCN(C(=O)Cn3cc(CCCN=C(N)N)nn3)CC2)n1 |  | inactive: 1.58%
CCOc1cc2c(c3c1C(c1ccccc1)N(S(=O)(=O)c1ccc(C)cc1)C3)C(=O)C=CC2=O (stereo unspecified) | inconclusive [inhibitor, partial curve, poor fit] | 
CCOc1cc(C=NN2CCCCCC2)ccc1O | active: 11.2 µM | 
COc1cc(OC)c(C(=O)NNC(=S)NC2CCCCC2)cc1OC | inconclusive [inhibitor, single point] | 
COc1cccc(-c2nc(-c3cccs3)no2)c1 | inconclusive [inhibitor, full curve, poor fit] | 
Oc1ccc(O)c(Cc2nc3ccccc3s2)c1 | inconclusive [inhibitor, single point] | 
CC(=O)COC(=O)C1CCN(S(=O)(=O)c2cc([N+](=O)[O-])ccc2Cl)CC1 | inconclusive [inhibitor, partial curve, poor fit] | 
CC(=O)c1ccc2c3c(cccc13)CC2 | inconclusive [inhibitor, single point] | 
O=S1(=O)C[C@@H](N2CCC[C@@H]2CO)[C@H](COCc2ccccc2)N1 | inconclusive [inhibitor, partial curve, poor fit] | 
Cn1cccc1/C=N/NC(=O)CNc1cccc2ccccc12 | inconclusive [inhibitor, single point] | 
Cc1ccc(OCc2nc(C#N)c(N3CCCC3)o2)cc1 | inconclusive [inhibitor, single point] | 
CCN(CC)C(=O)CSc1nc2ccsc2c(=O)n1CCCC(=O)NCCc1ccc(S(N)(=O)=O)cc1 | inconclusive [inhibitor, single point] | 
CCC(=O)c1ccc(OCc2ccc(C(=O)OC)o2)c(OC)c1 | inconclusive [inhibitor, single point] | 
CC(CNC(=O)C1CCCCC1)NC(=O)C1CCCCC1 (stereo unspecified) |  | inactive: 7.62%
Cc1ccc(NC(=O)CCC(=O)OCC(F)(F)C(F)F)cc1 |  | inactive: -1.41%
COc1cc(/C=N/Nc2ccccn2)ccc1OCC(C)C | inconclusive [inhibitor, partial curve, poor fit] | 
CCOc1ccccc1CNC(=O)c1ccc(Cn2c(SCc3ccccc3)nc3cccnc32)cc1 |  | inactive: -4.18%
O=C(Nc1ccc2nc3n(c(=O)c2c1)CCCCC3)C(=O)N1CCN(c2ccc(F)cc2)CC1 | inconclusive [inhibitor, single point] | 
O=C(NNC1CC(=O)N(c2cccc(Cl)c2)C1=O)c1cccs1 (stereo unspecified) | inconclusive [inhibitor, single point] | 
